This is one part of the list.
Key:
Assay in all cases: glycan array binding signal (z-score within array); higher = stronger binding
Details in all cases: glycan notation: IUPAC condensed, linker removed
[1] = target: Fuc(a1-3)[Gal3S(b1-4)]GlcNAc6S
Method in brief: (§1)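 Negative Z-scores can be read as non-binding. The Z-score is calculated within each array and then averaged across arrays of one protein sequence at different concentrations or buffers and across linkers. Arrays, 3228 in all, were curated from the Consortium for Functional Glycomics database and kept only where the protein sequence was available.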

[2] = target: Fuc(a1-3)[GalNAc(b1-4)]GlcNAc
Method in brief: as §1

[3] = target: Fuc(a1-3)[GalNAc(b1-4)]GlcNAc6S
Method in brief: as §1

[4] = target: Fuc(a1-4)GlcNAc
Method in brief: as §1

[5] = target: Fuc(b1-3)GlcNAc
Method in brief: as §1

[6] = target: Gal(a1-2)Gal
Method in brief: as §1

[7] = target: Gal(a1-3)Gal
Method in brief: as §1

[8] = target: Gal(a1-3)Gal(b1-3)GlcNAc
Method in brief: as §1

[9] = target: Gal(a1-3)Gal(b1-3)GlcNAc(b1-2)Man
Method in brief: as §1

[10] = target: Gal(a1-3)Gal(b1-3)GlcNAc(b1-2)Man(a1-3)[Gal(a1-3)Gal(b1-3)GlcNAc(b1-2)Man(a1-6)]Man(b1-4)GlcNAc(b1-4)GlcNAc
Method in brief: as §1

[11] = target: Gal(a1-3)Gal(b1-3)GlcNAc(b1-3)GalNAc
Method in brief: as §1

[12] = target: Gal(a1-3)Gal(b1-3)GlcNAc(b1-6)GalNAc
Method in brief: as §1

[13] = target: Gal(a1-3)Gal(b1-3)[Fuc(a1-4)]GlcNAc(b1-2)Man(a1-3)[Gal(a1-3)Gal(b1-3)[Fuc(a1-4)]GlcNAc(b1-2)Man(a1-6)]Man(b1-4)GlcNAc(b1-4)GlcNAc
Method in brief: as §1

[14] = target: Gal(a1-3)Gal(b1-4)Glc
Method in brief: as §1

[15] = target: Gal(a1-3)Gal(b1-4)GlcNAc
Method in brief: as §1

[16] = target: Gal(a1-3)Gal(b1-4)GlcNAc(b1-2)Man
Method in brief: as §1

[17] = target: Gal(a1-3)Gal(b1-4)GlcNAc(b1-2)Man(a1-3)[Gal(a1-3)Gal(b1-4)GlcNAc(b1-2)Man(a1-6)]Man(b1-4)GlcNAc(b1-4)GlcNAc
Method in brief: as §1

[18] = target: Gal(a1-3)Gal(b1-4)GlcNAc(b1-3)GalNAc
Method in brief: as §1

[19] = target: Gal(a1-3)Gal(b1-4)GlcNAc(b1-6)GalNAc
Method in brief: as §1

[20] = target: Gal(a1-3)Gal(b1-4)[Fuc(a1-3)]GlcNAc
Method in brief: as §1

[21] = target: Gal(a1-3)Gal(b1-4)[Fuc(a1-3)]GlcNAc(b1-2)Man(a1-3)[Gal(a1-3)Gal(b1-4)[Fuc(a1-3)]GlcNAc(b1-2)Man(a1-6)]Man(b1-4)GlcNAc(b1-4)GlcNAc
Method in brief: as §1

[22] = target: Gal(a1-3)GalNAc
Method in brief: as §1

[23] = target: Gal(a1-3)[Gal(a1-4)]Gal(b1-4)GlcNAc
Method in brief: as §1

[24] = target: Gal(a1-4)Gal(b1-3)GlcNAc(b1-2)Man(a1-3)[Gal(a1-4)Gal(b1-3)GlcNAc(b1-2)Man(a1-6)]Man(b1-4)GlcNAc(b1-4)GlcNAc
Method in brief: as §1

[25] = target: Gal(a1-4)Gal(b1-4)Glc
Method in brief: as §1

[26] = target: Gal(a1-4)Gal(b1-4)GlcNAc
Method in brief: as §1

[27] = target: Gal(a1-4)Gal(b1-4)GlcNAc(b1-2)Man(a1-3)[Gal(a1-4)Gal(b1-4)GlcNAc(b1-2)Man(a1-6)]Man(b1-4)GlcNAc(b1-4)GlcNAc
Method in brief: as §1

[28] = target: Gal(a1-4)Gal(b1-4)GlcNAc(b1-3)Gal(b1-4)Glc
Method in brief: as §1

[29] = target: Gal(a1-4)GlcNAc
Method in brief: as §1

[30] = target: Gal(a1-6)Glc
Method in brief: as §1

[31] = target: Gal(b1-2)Gal
Method in brief: as §1

[32] = target: Gal(b1-3)Gal
Method in brief: as §1

[33] = target: Gal(b1-3)Gal(b1-4)GlcNAc
Method in brief: as §1

[34] = target: Gal(b1-3)GalNAc
Method in brief: as §1

[35] = target: Gal(b1-3)GalNAc(a1-3)[Fuc(a1-2)]Gal(b1-4)Glc
Method in brief: as §1

[36] = target: Gal(b1-3)GalNAc(a1-3)[Fuc(a1-2)]Gal(b1-4)GlcNAc
Method in brief: as §1

[37] = target: Gal(b1-3)GalNAc(b1-3)Gal
Method in brief: as §1

B1: PX14375l-pdi-526-25-526 (Parabacteroides distasonis) (protein)
chain: DEEPKSTLTDVAYYKTQSQMESNVNYLYRTGAIGSYVDFGSAYIGPFASIQEELTGYFSNSYEGQEIVCRYTRELTRQQNTMQLASKMDKVWDDCYRGINVANGAIKHMPEVPMDQATADRLTAEAKFFRAFNYFYLVKTFGAVPFYTDPYELAENMELPRTETSTIYNQIESDLKDAMNVLPEATFAANGHRITKYVAAMTLTDVYMYQHKYAEAAETVRIVVNSNHKLTTNDDLAMNSAFNKLRSTDDLDEAIYAYEYDNQISPSNWLPTYAFDGDASSNGLFGTYAITQKVHGPNDRYLNIYESNDLRRQPNQFYHWTYTNPKTGKVWNSVGNAACCWYYYDEDALLTTGRGTKDWNVYRYAEALLDAAESIAQSTGVTAEAAGYLAQVKARANMEGKTAAEIASSLQSMGKQAFIEECWTERLRELPLEFKMWDMCVRTGMFPNISETTPGQVTYIPLVGAKNASGATIKESDLLWPLSVNEIQRNPSLTQNEGYSAK
[1]
  glycan array binding signal (z-score): -0.018
[2]
  glycan array binding signal (z-score): 0.014
[3]
  glycan array binding signal (z-score): -0.238
[4]
  glycan array binding signal (z-score): 0.026
[5]
  glycan array binding signal (z-score): -0.225
[6]
  glycan array binding signal (z-score): -0.023
[7]
  glycan array binding signal (z-score): -0.181
[8]
  glycan array binding signal (z-score): 0.682
[9]
  glycan array binding signal (z-score): 0.003
[10]
  glycan array binding signal (z-score): 0.345
[11]
  glycan array binding signal (z-score): -0.092
[12]
  glycan array binding signal (z-score): -0.201
[13]
  glycan array binding signal (z-score): 0.104
[14]
  glycan array binding signal (z-score): -0.297
[15]
  glycan array binding signal (z-score): -0.203
[16]
  glycan array binding signal (z-score): -0.148
[17]
  glycan array binding signal (z-score): 0.174
[18]
  glycan array binding signal (z-score): -0.256
[19]
  glycan array binding signal (z-score): -0.04
[20]
  glycan array binding signal (z-score): -0.3
[21]
  glycan array binding signal (z-score): 1.28
[22]
  glycan array binding signal (z-score): -0.043
[23]
  glycan array binding signal (z-score): 0.562
[24]
  glycan array binding signal (z-score): 0.198
[25]
  glycan array binding signal (z-score): -0.305
[26]
  glycan array binding signal (z-score): -0.194
[27]
  glycan array binding signal (z-score): 1.19
[28]
  glycan array binding signal (z-score): -0.084
[29]
  glycan array binding signal (z-score): -0.175
[30]
  glycan array binding signal (z-score): -0.362
[31]
  glycan array binding signal (z-score): -0.209
[32]
  glycan array binding signal (z-score): 0.137
[33]
  glycan array binding signal (z-score): -0.206
[34]
  glycan array binding signal (z-score): -0.27
[35]
  glycan array binding signal (z-score): -0.233
[36]
  glycan array binding signal (z-score): -0.31
[37]
  glycan array binding signal (z-score): -0.407

Reference: the supplement of paper PMC8728848
